# Reference: PMC3062741 (Behavioural brain research, 2011)
# Several values for one entry are separate records, joined by “and”; a condition that tells them apart may be missing. Identical values can stand only once. Like-named read-outs stand apart in the source and are kept apart here.
# Legend:
# [1] = biological target: T1, dopamine (DA) transporter (DAT) (Rattus norvegicus, UniProt P23977); settings: for effect on kinetic parameters of [3H]DA uptake: PFC or striatum
# [2] = biological target: T1, dopamine (DA) transporter (DAT); settings: for Bmax of [3H]WIN 35,428 binding, PFC / Bmax of [3H]WIN 35,428 binding, Striatum: 14-day drug-free, saline and MPD 10 mg/kg challenge
# [3] = EC rats, repeated MPD 3 mg/kg 10 days
# [4] = EC rats, repeated MPD 10 mg/kg 10 days
# [5] = IC rats, repeated MPD 3 mg/kg 10 days
# [6] = IC rats, repeated MPD 10 mg/kg 10 days
# [7] = SC rats, repeated MPD 3 mg/kg 10 days
# [8] = SC rats, repeated MPD 10 mg/kg 10 days
# T1 sequence (P23977 whole entry): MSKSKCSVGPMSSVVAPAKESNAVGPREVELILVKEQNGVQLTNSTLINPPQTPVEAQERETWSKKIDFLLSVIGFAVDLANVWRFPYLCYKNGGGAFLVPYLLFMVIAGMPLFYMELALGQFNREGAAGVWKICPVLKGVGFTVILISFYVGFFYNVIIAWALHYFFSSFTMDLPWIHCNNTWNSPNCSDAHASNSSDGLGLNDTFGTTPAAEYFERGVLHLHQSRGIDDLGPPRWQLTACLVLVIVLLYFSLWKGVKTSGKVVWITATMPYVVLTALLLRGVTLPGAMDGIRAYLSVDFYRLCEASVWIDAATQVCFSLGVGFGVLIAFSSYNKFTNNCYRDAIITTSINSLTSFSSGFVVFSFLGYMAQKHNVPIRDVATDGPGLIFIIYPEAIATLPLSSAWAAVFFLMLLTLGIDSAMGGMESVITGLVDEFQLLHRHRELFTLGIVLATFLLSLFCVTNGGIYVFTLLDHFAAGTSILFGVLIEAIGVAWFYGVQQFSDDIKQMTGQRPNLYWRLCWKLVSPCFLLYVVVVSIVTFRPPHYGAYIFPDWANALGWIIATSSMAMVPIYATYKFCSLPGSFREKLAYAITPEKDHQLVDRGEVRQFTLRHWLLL
structure (smiles),measurement,setting,value
"COC(=O)C(c1ccccc1)C1CCCCN1 (stereo not shown) [MPD, Methylphenidate]",effect on kinetic parameters of [3H]DA uptake,"[1]; EC or IC rats, acute MPD 3 mg/kg, results not shown",did not significantly alter the kinetic parameters
same,decrease in Vmax of [3H]DA uptake compared to saline controls,"[1]; EC rats, PFC, acute MPD 10 mg/kg s.c., 60 min after injection",32 ± 3% and 32%
same,decrease in Vmax of [3H]DA uptake compared to saline control,"[1]; EC rats, striatum, acute MPD 10 mg/kg s.c., 60 min after injection",26 ± 1%
same,effect on kinetic parameters of [3H]DA uptake,"[1]; IC rats, acute MPD 10 mg/kg",did not alter the kinetic parameters
same,"effect on Bmax of [3H]WIN 35,428 binding","[2]; EC and IC rats, PFC or striatum, repeated MPD 3 mg/kg",did not alter Bmax values
same,"decrease in Bmax of [3H]WIN 35,428 binding","[2]; EC rats, PFC, repeated MPD 10 mg/kg vs saline",34 ± 4%
same,"Bmax of [3H]WIN 35,428 binding, PFC",[2]; [3],0.72 pmol/mg protein
same,"Bmax of [3H]WIN 35,428 binding, Striatum",[2]; [3],4.87 pmol/mg protein
same,"Bmax of [3H]WIN 35,428 binding, PFC",[2]; [4],0.5 pmol/mg protein
same,"Bmax of [3H]WIN 35,428 binding, Striatum",[2]; [4],4.27 pmol/mg protein
same,"decrease in Bmax of [3H]WIN 35,428 binding","[2]; EC rats, striatum, repeated MPD 10 mg/kg vs saline",27 ± 3% and 27%
same,"decrease in Bmax of [3H]WIN 35,428 binding","[2]; IC rats, PFC, repeated MPD 10 mg/kg vs saline",24 ± 3% and 24%
same,"Bmax of [3H]WIN 35,428 binding, PFC",[2]; [5],0.78 pmol/mg protein
same,"Bmax of [3H]WIN 35,428 binding, Striatum",[2]; [5],4.99 pmol/mg protein
same,"Bmax of [3H]WIN 35,428 binding, PFC",[2]; [6],0.65 pmol/mg protein
same,"Bmax of [3H]WIN 35,428 binding, Striatum",[2]; [6],4.59 pmol/mg protein
same,"effect on Bmax of [3H]WIN 35,428 binding","[2]; IC rats, striatum, repeated MPD 10 mg/kg vs saline",no significant effect
same,"effect on Bmax of [3H]WIN 35,428 binding","[2]; SC rats, PFC or striatum, repeated MPD 3 or 10 mg/kg vs saline",No significant differences
same,"Bmax of [3H]WIN 35,428 binding, PFC",[2]; [7],0.52 pmol/mg protein
same,"Bmax of [3H]WIN 35,428 binding, Striatum",[2]; [7],6.67 pmol/mg protein
same,"Bmax of [3H]WIN 35,428 binding, PFC",[2]; [8],0.64 pmol/mg protein
same,"Bmax of [3H]WIN 35,428 binding, Striatum",[2]; [8],6.67 pmol/mg protein
